Laboratory results as given in the BET-seq Pho4 binding data (Le et al. 2018).
Some of the results follow. The energies were worked out here from pooled read counts, against the library average; single values are noisy.

Target: T1, Pho4 (S. cerevisiae) (UniProt P07270)
T1 sequence: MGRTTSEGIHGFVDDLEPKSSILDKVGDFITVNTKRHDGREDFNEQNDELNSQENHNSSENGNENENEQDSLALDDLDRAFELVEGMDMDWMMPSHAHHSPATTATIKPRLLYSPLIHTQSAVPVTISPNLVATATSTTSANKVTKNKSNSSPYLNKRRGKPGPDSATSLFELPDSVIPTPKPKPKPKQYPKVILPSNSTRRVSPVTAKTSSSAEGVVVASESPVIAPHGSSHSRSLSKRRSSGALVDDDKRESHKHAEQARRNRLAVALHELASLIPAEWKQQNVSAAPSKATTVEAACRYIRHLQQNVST
Experiment: relative binding free energy (BET-seq); higher = weaker binding
Details: reference: library average

| Sequence | relative binding free energy [kcal/mol] |
| --- | --- |
| TAGGGCACGTGTTGAT | -0.05 |
| TAAGGCACGTGAGGTC | 0.24 |
| TTATACACGTGGATAA | 0.08 |
| ATGATCACGTGTTATG | 0.05 |
| GTCAGCACGTGTGTTA | 0.17 |
| TCTGGCACGTGTTTAG | -0.08 |
| GTAGGCACGTGAGGGC | 0.15 |
| CTTGCCACGTGGGTAG | -0.17 |
| GGGTCCACGTGGTGAG | 0.1 |
| TCAAGCACGTGGAGGG | -0.17 |
| AGGGACACGTGGTCAG | -0.14 |
| GTAATCACGTGGGAAA | 0.26 |
| CTTTCCACGTGATTGT | 0.18 |
| TACGACACGTGTGTGG | 0.06 |
| GGTCACACGTGTTGAG | 0.11 |
| TATAACACGTGGGAAG | -0.05 |
| GGAAGCACGTGTGGGA | -0.1 |
| CGGGACACGTGTCGGT | 0.11 |
| AGCGGCACGTGCAGGA | -0.02 |
| TTCGTCACGTGGGGAA | 0.01 |
| GGGCACACGTGGGACT | 0.14 |
| GTCGGCACGTGTGTAT | 0.08 |
| AACTTCACGTGGCGGG | 0.27 |
| GTTATCACGTGTAGTC | 0.11 |
| TGCTGCACGTGGGGGT | -0.18 |

| Sequence | relative binding free energy [kcal/mol] |
| --- | --- |
| TAGGACACGTGGAATG | 0.14 |
| CGGTGCACGTGAGGGA | 0.2 |
| AATGCCACGTGAGGTT | 0.19 |
| TGGGGCACGTGCATTA | -0.23 |
| GGGCTCACGTGGGTCG | 0.06 |
| TTTATCACGTGCGTAA | 0.15 |
| CTGGTCACGTGTAGTG | 0.03 |
| GGGGTCACGTGGCAGT | 0.04 |
| GAGAGCACGTGGGATC | 0.06 |
| TTGGGCACGTGGTGGA | -0.1 |
| TAGCGCACGTGTGTTT | 0.13 |
| AGCGTCACGTGGGGAC | -0.08 |
| GGTCTCACGTGCTTTT | 0.37 |
| TTGCGCACGTGCGGTA | 0 |
| GGCGACACGTGCTGGT | 0.04 |
| ATGATCACGTGGAGTA | 0.2 |
| ATCTACACGTGTGAGG | 0.18 |
| TGGGTCACGTGATTGG | 0.37 |
| GCGTACACGTGGGGTT | -0.06 |
| CTGGGCACGTGGGAAG | -0.1 |
| TATCACACGTGGTAGT | -0.06 |
| GGATACACGTGAAAGT | 0.44 |
| TGTATCACGTGTGGTC | 0.29 |
| GCGGGCACGTGGTCAG | -0.22 |
| GTAGTCACGTGAGTGA | 0.3 |

| Sequence | relative binding free energy [kcal/mol] |
| --- | --- |
| GTGTGCACGTGTGAAT | 0.12 |
| GGTTACACGTGTTCAG | 0.11 |
| GAGTTCACGTGTTTAA | 0.47 |
| TAGAGCACGTGGGTCT | -0.24 |
| AGTGACACGTGTTTAT | 0.01 |
| GGTATCACGTGTGCTG | 0.11 |
| GTTGTCACGTGGCCTT | -0.07 |
| AAGGCCACGTGGGAGG | -0.21 |
| GCCGTCACGTGAGGTT | 0.3 |
| GTTGTCACGTGAACTG | 0.27 |
| AAGTCCACGTGTAGGG | 0.12 |
| GGTAACACGTGTGGAT | -0.02 |
| TAGCTCACGTGTGTGG | 0.2 |
| ATTATCACGTGGATCG | 0.21 |
| GGACTCACGTGAAGTG | 0.3 |
| AATTTCACGTGTGCTA | 0.33 |
| TGGTGCACGTGTTTAC | -0.12 |
| TAATGCACGTGAGGTA | 0.19 |
| ACAGGCACGTGAGGTG | -0.03 |
| CGGCTCACGTGAGGGG | 0.29 |
| TGAATCACGTGTGTAG | 0.26 |
| AGTATCACGTGCATTG | 0.09 |
| AGTGCCACGTGAATTT | 0.2 |
| GTGAACACGTGATAGT | 0.13 |
| AATGGCACGTGTTAAA | 0.02 |

| Sequence | relative binding free energy [kcal/mol] |
| --- | --- |
| TAGCGCACGTGAAGTG | 0.06 |
| CGGGTCACGTGCAATG | 0.2 |
| ATCATCACGTGGCTTG | 0.19 |
| TTTTGCACGTGAGGAA | 0.18 |
| TTGCGCACGTGTGATA | -0.1 |
| CGAGTCACGTGGGGAA | 0.02 |
| TGTTGCACGTGCTATG | 0 |
| CTTTTCACGTGGCAGG | 0.26 |
| TCGTGCACGTGGTTAT | -0.14 |
| GGACGCACGTGTGGAT | -0.15 |
| ATGTTCACGTGGACGA | 0.31 |
| TTCGTCACGTGTTTGT | 0.09 |
| GGGGACACGTGTGTAT | 0.12 |
| GTAGTCACGTGTCTTT | 0.08 |
| TTTGACACGTGATGCA | 0.06 |
| TTTGTCACGTGGAGGA | 0.12 |
| GATTTCACGTGTCATG | 0.37 |
| TGTTTCACGTGAAAGG | 0.31 |
| GAGGACACGTGCAGTG | 0.09 |
| GTGTACACGTGATATA | 0.01 |
| TTTAGCACGTGTCTTT | -0.08 |
| ATGTTCACGTGTTTGA | 0.23 |
| TCGTGCACGTGGTTGC | -0.01 |
| GAGGCCACGTGGGTTC | 0 |
| TGAGTCACGTGGTGTT | 0.11 |

| Sequence | relative binding free energy [kcal/mol] |
| --- | --- |
| AGAGTCACGTGATTAT | 0.24 |
| TTCGGCACGTGAGTAT | 0.12 |
| CCGTGCACGTGTTGGT | 0.07 |
| GTAGGCACGTGGAATG | 0 |
| ATTGTCACGTGGCGCT | 0.06 |
| ATGGACACGTGAGCTG | 0.18 |
| CCGTACACGTGTGGGG | 0.1 |
| CGAGGCACGTGGAGTG | -0.22 |
| ATGTGCACGTGTGGGG | 0 |
| TAAGGCACGTGCAATG | -0.01 |
| TTACGCACGTGTTTAT | -0.12 |
| CTCAGCACGTGGTTGT | -0.14 |
| AGTTACACGTGGTTGA | 0.01 |
| CTAGTCACGTGTGTGG | 0.1 |
| AATTACACGTGGAGTT | 0.06 |
| GGTTACACGTGAGCGT | 0.32 |
| GTGTGCACGTGGTATA | -0.12 |
| AATTGCACGTGGGGGT | -0.16 |
| ATAGGCACGTGTGGGG | 0 |
| CTATTCACGTGTCGTG | 0.25 |
| TCGTACACGTGCGGGG | 0.13 |
| CTCATCACGTGTGTGT | 0.2 |
| TCGAGCACGTGACGGT | 0.06 |
| GGAAACACGTGTGTAT | 0.23 |
| GTGGTCACGTGGAGTG | 0.04 |

| Sequence | relative binding free energy [kcal/mol] |
| --- | --- |
| AAGGTCACGTGGGGTG | -0.04 |
| TTTCGCACGTGTTCTT | -0.06 |
| GGGTTCACGTGTATGC | 0.27 |
| TTCGCCACGTGTTTGG | -0.02 |
| GCTATCACGTGCGGGG | 0.09 |
| GGGCCCACGTGGGAGG | -0.29 |
| TATAGCACGTGTATTC | 0.03 |
| GTTAGCACGTGTGCGG | -0.06 |
| TGTGACACGTGGGGAA | -0.12 |
| ATGGACACGTGAGAGG | 0.3 |
| CTGTTCACGTGATGTG | 0.18 |
| TTGCACACGTGTAGTG | 0.13 |
| TAGTGCACGTGATGCG | 0 |
| ACGAGCACGTGTGATG | 0.05 |
| ATAATCACGTGGGAGT | 0 |
| TGCGTCACGTGAATTA | 0.33 |
| ATTAACACGTGGGGCT | -0.09 |
| TTATTCACGTGATCTG | 0.29 |
| AATTGCACGTGAGGGC | 0.17 |
| TGCTTCACGTGGTCAT | 0.3 |
| TTGATCACGTGGGATA | 0.09 |
